Laboratory results as given in the GPR68 mutational scans of Howard et al. (2025).
Scores whose standard error is large were omitted. The source holds two more conditions with little spread; they are left out. In variant names, del marks residues removed and ins residues inserted between the two positions. For some assays here: The data file names ogerin without a concentration.

B1: GPR68, Q15743 (parent)
chain: MGNITADNSSMSCTIDHTIHQTLAPVVYVTVLVVGFPANCLSLYFGYLQIKARNELGVYLCNLTVADLFYICSLPFWLQYVLQHDNWSHGDLSCQVCGILLYENIYISVGFLCCISVDRYLAVAHPFRFHQFRTLKAAVGVSVVIWAKELLTSIYFLMHEEVIEDENQHRVCFEHYPIQAWQRAINYYRFLVGFLFPICLLLASYQGILRAVRRSHGTQKSRKDQIQRLVLSTVVIFLACFLPYHVLLLVRSVWEASCDFAKGVFNAYHFSLLLTSFNCVADPVLYCFVSETTHRDLARLRGACLAFLTCSRTGRAREAYPLGAPEASGKSGAQGEEPELLTKLHPAFQTPNSPGSGGFPTGRLA

What was measured:
[1] = variants of: B1; assay: cAMP reporter score (Enrich2 score, wild type = 0); higher = more signal; HEK293T, FACS bins
[2] = variants of: B1; assay: surface expression score (Enrich2 score, wild type = 0); higher = more signal; HEK293T, FACS bins

| Variant | cAMP reporter score ([1]; pH 5.5) | cAMP reporter score ([1]; pH 6) | cAMP reporter score ([1]; pH 6, modulator: ogerin) | surface expression score [2] | cAMP reporter score ([1]; pH 6.5, modulator: ogerin) |
| --- | --- | --- | --- | --- | --- |
| F348M | -1.59 | 1.83 | -0.63 | 0.347 | – |
| F348N | 1.37 | 1.27 | 1.86 | 1.89 | 2.2 |
| F348P | 0.207 | 0.504 | 0.751 | 0.875 | 0.915 |
| F348R | 0.231 | 0.209 | 0.341 | 0.421 | 0.748 |
| F348S | 0.137 | 0.539 | 0.854 | 0.502 | 0.272 |
| F348T | 0.917 | 0.077 | 0.405 | 1.3 | 0.417 |
| F348V | 1.73 | 2.07 | 1.83 | 2.34 | 1.99 |
| F348W | 0.866 | 0.257 | 0.654 | 0.575 | 0.812 |
| F348Y | -0.173 | -0.402 | -0.043 | -0.158 | -0.593 |
| F348_Q349del | 0.556 | 0.083 | 1.26 | 1.9 | 1.37 |
| F348_Q349insGS | 0.987 | -0.302 | 0.843 | 0.698 | 0.667 |
| F348_T350del | 0.338 | 0.671 | 0.177 | 0.789 | 0.265 |
| F348del | 0.156 | -0.045 | -0.245 | -0.255 | -0.115 |
| Q349A | 1.08 | 0.148 | 1.32 | 1.3 | 0.645 |
| Q349C | 1 | -0.443 | 1.13 | – | 1.29 |
| Q349D | 1.12 | 0.006 | 1.1 | 1 | 0.518 |
| Q349E | -0.307 | – | 0.032 | -0.181 | – |
| Q349F | 0.462 | -0.397 | 0.404 | -0.322 | -0.7 |
| Q349G | 1.49 | – | 1.3 | 1.53 | 1.33 |
| Q349H | 1.06 | 0.517 | 0.456 | 0.732 | – |
| Q349I | 0.554 | 0.401 | 0.527 | 0.424 | -0.23 |

| Variant | cAMP reporter score ([1]; pH 5.5) | cAMP reporter score ([1]; pH 6) | cAMP reporter score ([1]; pH 6, modulator: ogerin) | surface expression score [2] | cAMP reporter score ([1]; pH 6.5, modulator: ogerin) |
| --- | --- | --- | --- | --- | --- |
| Q349K | 1.16 | 0.596 | 1.05 | 0.679 | 0.898 |
| Q349L | 0.853 | 0.785 | 0.597 | -0.055 | -0.394 |
| Q349M | 1.65 | – | 1.92 | 2.48 | – |
| Q349N | 0.471 | 0.81 | 0.01 | 0.102 | -0.096 |
| Q349P | -0.285 | -0.119 | 0.582 | 0.476 | -0.031 |
| Q349R | -0.873 | -0.429 | -0.139 | -0.515 | 0.542 |
| Q349S | 1.26 | 0.923 | 1.26 | 1.1 | 1.23 |
| Q349T | 0.679 | -0.449 | 0.667 | 0.119 | -0.2 |
| Q349V | 0.696 | 1.21 | 1.97 | 1.82 | 1.17 |
| Q349W | -0.15 | -0.415 | 0.005 | -0.554 | -0.923 |
| Q349Y | 0.058 | – | 0.04 | 0.655 | 0.109 |
| Q349_T350insG | 0.829 | -0.315 | 0.801 | 0.758 | 0.975 |
| Q349_T350insGSG | 0.083 | -0.068 | 0.677 | 0.727 | 0.378 |
| Q349del | 0.532 | -0.455 | 0.513 | 0.77 | 0.463 |
| T350A | 0.292 | -0.67 | 0.683 | 0.094 | 0.285 |
| T350C | 0.01 | – | -0.271 | 0.237 | 1.01 |
| T350D | 0.472 | -0.502 | 0.902 | 0.698 | 1.07 |
| T350E | -0.133 | 0.384 | 0.312 | -0.192 | 0.735 |
| T350F | 0.64 | -0.895 | -0.087 | -0.087 | -0.585 |
| T350G | 1.06 | 0.113 | 1.14 | 0.377 | 1.05 |
| T350H | 0.67 | -0.132 | 0.853 | 0.195 | 0.437 |

| Variant | cAMP reporter score ([1]; pH 5.5) | cAMP reporter score ([1]; pH 6) | cAMP reporter score ([1]; pH 6, modulator: ogerin) | surface expression score [2] | cAMP reporter score ([1]; pH 6.5, modulator: ogerin) |
| --- | --- | --- | --- | --- | --- |
| T350I | 0.151 | -1.28 | 0.084 | -0.21 | 1.49 |
| T350K | 0.698 | 1.15 | 2.62 | 1.07 | 0.215 |
| T350L | 0.217 | 0.177 | -0.772 | -1.45 | -0.368 |
| T350M | 0.831 | 0.063 | 1.06 | 0.439 | 0.373 |
| T350N | -0.475 | -0.043 | -0.332 | -0.189 | 0.669 |
| T350P | 2.23 | 0.35 | 1.22 | 1.31 | 0.942 |
| T350Q | 0.539 | 0.528 | 0.718 | 0.688 | 0.512 |
| T350R | 0.211 | -0.18 | 0.359 | 0.514 | 0.657 |
| T350S | 0.226 | 0.063 | 0.143 | 0.537 | 0.291 |
| T350V | 0.161 | -0.688 | 0.349 | -0.039 | 0.118 |
| T350W | -0.437 | -0.095 | 0.387 | -0.39 | -0.468 |
| T350Y | -0.222 | -0.912 | 0.086 | -0.597 | -0.687 |
| T350_P351del | 0.092 | -0.287 | -0.021 | -0.15 | 0.023 |
| P351_N352insGSG | -0.197 | 0.111 | -0.154 | 0.7 | 0.518 |
| N352_S353del | 0.084 | -0.233 | -0.321 | -0.797 | -0.182 |
| N352_S353insGSG | 0.272 | 0.33 | 0.516 | 0.371 | 0.907 |
| S353_P354insGSG | 0.853 | 0.155 | 0.881 | 0.508 | 1.09 |
| P354_G355del | 0.437 | 0.922 | 1.08 | 0.835 | 0.233 |
| P354_G355insG | 0.197 | – | 0.088 | 0.086 | 0.447 |
| P354del | 0.515 | – | – | 0.662 | – |
